Assay results from the supplement of paper PMC4967469.

How the values were obtained:
Test in all cases: Viability of human cancer cell lines after 72 h of drug (GDSC screen)
QL-X-138 = compound: C=CC(=O)Nc1cc(-n2c(=O)ccc3cnc4ccc(-c5cn[nH]c5)cc4c32)ccc1C [QL-X-138]; details: top dose 10.24 µM; top dose inferred
Procedure: (§1)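 Human cancer cell lines in 384-well plates, medium with 10% serum, drug for 72 h over a 256-fold dose range (nine 2-fold or five 4-fold steps up to the top dose). Adherent lines were fixed and stained with the nucleic acid dye Syto60, suspension lines read with resazurin; signal relative to control wells, capped at 0 and 100%. One two-parameter sigmoid per drug and line, fitted in a mixed model over all curves with the slope shared within a line.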

Cytarabine = compound: Nc1ccn([C@@H]2O[C@H](CO)[C@@H](O)[C@@H]2O)c(=O)n1 [Cytarabine]; details: top dose 2 µM
Procedure: as §1

GSK269962A = compound: CCn1c(-c2nonc2N)nc2cnc(Oc3cccc(NC(=O)c4ccc(OCCN5CCOCC5)cc4)c3)cc21 [GSK269962A]; details: top dose inferred
Procedure: as §1

ABT-869 = compound: Cc1ccc(F)c(NC(=O)Nc2ccc(-c3cccc4[nH]nc(N)c34)cc2)c1 [ABT-869]; details: top dose 1.024 µM; top dose inferred
Procedure: as §1

MPS-1-IN-1 = compound: COc1cc(N2CCC(O)CC2)ccc1Nc1cc(Nc2ccccc2S(=O)(=O)C(C)C)c2cc[nH]c2n1 [MPS-1-IN-1]; details: top dose 20 µM; top dose inferred
Procedure: as §1

ABT-888 = compound: C[C@]1(c2nc3c(C(N)=O)cccc3[nH]2)CCCN1 [ABT-888]; details: top dose 5 µM; top dose inferred
Procedure: as §1

KU-55933 = compound: O=c1cc(-c2cccc3c2Sc2ccccc2S3)oc(N2CCOCC2)c1 [KU-55933]; details: top dose 10 µM
Procedure: as §1

Thapsigargin = compound: C/C=C(/C)C(=O)O[C@H]1C(C)=C2[C@H]([C@@H]1OC(=O)CCCCCCC)[C@@](C)(OC(C)=O)C[C@H](OC(=O)CCC)[C@@]1(O)[C@H]2OC(=O)[C@@]1(C)O [Thapsigargin]; details: top dose 0.512 µM; top dose inferred
Procedure: as §1

Zibotentan = compound: COc1nc(C)cnc1NS(=O)(=O)c1cccnc1-c1ccc(-c2nnco2)cc1 [Zibotentan]; details: top dose 20 µM; top dose inferred
Procedure: as §1

CP466722 = compound: COc1cc2ncnc(-n3nc(-c4ccccn4)nc3N)c2cc1OC [CP466722]; details: top dose 16 µM; top dose inferred
Procedure: as §1

(5Z)-7-Oxozeaenol = compound: COc1cc(O)c2c(c1)/C=C/C[C@H](O)[C@H](O)C(=O)/C=C\C[C@H](C)OC2=O [(5Z)-7-Oxozeaenol]; details: top dose 10 µM; top dose inferred
Procedure: as §1

CHIR-99021 = compound: Cc1cnc(-c2cnc(NCCNc3ccc(C#N)cn3)nc2-c2ccc(Cl)cc2Cl)[nH]1 [CHIR-99021]
Procedure: as §1

[1] = top dose 5 µM, screen: GDSC drug entry 1192
[2] = top dose 2.56 µM, screen: GDSC drug entry 154
[3] = top dose 10 µM, screen: GDSC drug entry 1241, top dose inferred
[4] = top dose 2.5 µM, screen: GDSC drug entry 127

Cell Line | AUC (QL-X-138) | IC50 (QL-X-138) [nM] | AUC (Cytarabine) | IC50 (Cytarabine) [nM] | AUC (GSK269962A; [1]) | IC50 (GSK269962A; [1]) [nM] | AUC (ABT-869) | IC50 (ABT-869) [nM] | AUC (MPS-1-IN-1) | IC50 (MPS-1-IN-1) [nM] | AUC (ABT-888) | IC50 (ABT-888) [nM] | AUC (KU-55933) | IC50 (KU-55933) [nM] | AUC (Thapsigargin) | IC50 (Thapsigargin) [nM] | AUC (Zibotentan) | IC50 (Zibotentan) [nM] | AUC (CP466722) | IC50 (CP466722) [nM] | AUC ((5Z)-7-Oxozeaenol) | IC50 ((5Z)-7-Oxozeaenol) [nM] | AUC (CHIR-99021; [2]) | IC50 (CHIR-99021; [2]) [nM] | AUC (CHIR-99021; [3]) | IC50 (CHIR-99021; [3]) [nM] | AUC (GSK269962A; [4]) | IC50 (GSK269962A; [4]) [nM]
HuO9 (osteosarcoma, adherent) | 0.773 | 4440 | 0.904 | > 2000 | 0.965 | > 5000 | 0.901 | > 1020 | 0.96 | > 20000 | 0.978 | > 5000 | 0.898 | > 10000 | 0.914 | > 512 | 0.983 | > 20000 | 0.642 | 2580 | 0.571 | 1000 | 0.984 | > 2560 | 0.95 | > 10000 |  | 
IHH-4 (thyroid, semi-adherent) | 0.63 | 1350 | 0.203 | 21.2 | 0.992 | > 5000 | 0.993 | > 1020 | 0.993 | > 20000 | 0.98 | > 5000 | 0.944 | > 10000 | 0.08 | < 2 | 0.99 | > 20000 | 0.859 | 9220 | 0.297 | 192 | 0.992 | > 2560 | 0.975 | > 10000 |  | 
IPC-298 (melanoma, adherent) | 0.746 | 3210 | 0.825 | 1180 | 0.917 | > 5000 | 0.978 | > 1020 | 0.854 | 15400 | 0.986 | > 5000 | 0.987 | > 10000 | 0.308 | 9.36 | 0.987 | > 20000 | 0.898 | > 16000 | 0.304 | 178 | 0.986 | > 2560 | 0.919 | > 10000 |  | 
JHH-1 (liver, adherent) | 0.561 | 955 | 0.892 | > 2000 | 0.925 | > 5000 | 0.982 | > 1020 | 0.88 | > 20000 | 0.952 | > 5000 | 0.909 | > 10000 | 0.166 | 2.73 | 0.985 | > 20000 | 0.877 | > 16000 | 0.671 | 1960 | 0.985 | > 2560 | 0.918 | > 10000 |  | 
JHH-2 (liver, adherent) | 0.547 | 868 | 0.914 | > 2000 | 0.834 | 3620 | 0.985 | > 1020 | 0.929 | > 20000 | 0.986 | > 5000 | 0.949 | > 10000 | 0.955 | > 512 | 0.985 | > 20000 | 0.811 | 9260 | 0.75 | 3500 | 0.986 | > 2560 | 0.966 | > 10000 |  | 
JHH-7 (liver, adherent) | 0.77 | 3660 | 0.895 | > 2000 | 0.807 | 2370 | 0.986 | > 1020 | 0.947 | > 20000 | 0.985 | > 5000 | 0.989 | > 10000 | 0.259 | 6.92 | 0.989 | > 20000 | 0.886 | 15800 | 0.662 | 1710 | 0.989 | > 2560 | 0.988 | > 10000 |  | 
JURL-MK1 (chronic myeloid leukaemia, suspension) | 0.603 | 1230 | 0.401 | 67 | 0.937 | > 5000 | 0.985 | > 1020 | 0.927 | > 20000 | 0.94 | > 5000 | 0.972 | > 10000 | 0.403 | 17.3 | 0.979 | > 20000 | 0.648 | 2560 | 0.751 | 3280 | 0.978 | > 2560 | 0.977 | > 10000 | 0.975 | > 2500
K2 (melanoma, adherent) | 0.805 | 7100 | 0.687 | 493 | 0.888 | > 5000 | 0.982 | > 1020 | 0.919 | > 20000 | 0.971 | > 5000 | 0.982 | > 10000 | 0.416 | 17.6 | 0.979 | > 20000 | 0.869 | > 16000 | 0.181 | 48.6 | 0.913 | > 2560 | 0.931 | > 10000 |  | 
KMH-2 (thyroid, adherent) | 0.664 | 1730 | 0.758 | 628 | 0.854 | 3290 | 0.968 | > 1020 | 0.916 | > 20000 | 0.984 | > 5000 | 0.99 | > 10000 | 0.111 | 2.16 | 0.99 | > 20000 | 0.784 | 6010 | 0.427 | 404 | 0.964 | > 2560 | 0.955 | > 10000 |  | 
KMRC-1 (kidney, adherent) | 0.902 | > 10200 | 0.827 | 1320 | 0.783 | 2240 | 0.982 | > 1020 | 0.984 | > 20000 | 0.946 | > 5000 | 0.986 | > 10000 | 0.962 | > 512 | 0.986 | > 20000 | 0.945 | > 16000 | 0.571 | 991 | 0.962 | > 2560 | 0.934 | > 10000 |  | 

A lower IC50 marks a more sensitive line; where the fit passes the top or lowest dose, that dose stands as a limit. The AUC spans the tested range (256-fold, ending at the top dose) of the same fit; it is 1 without any effect and falls as sensitivity rises. For some of these results: Any top dose called inferred was calculated from the reported fits. For some of these results: Drugs with an entry number were screened twice under separate entries, and the two screens often disagree.
